Source: paper PMC6919601, “Identification of Plasmodium dipeptidyl aminopeptidase allosteric inhibitors by high throughput screening” (PLoS ONE, 2019)
In all, about 110,000 compounds went through this assay and about 230 (0.21%) showed an effect of 50% or more. This is one part of the list.

molecular target: DPAP1 (Plasmodium falciparum, UniProt Q8IIJ9); experiment: primary screen, percent inhibition; read by cleavage of a fluorogenic dipeptide substrate; higher = more effect of the substance; set-up: species or system P. falciparum D10 trophozoite lysates; single well
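Further: 30 min substrate incubation versus DMSO and 10 µM JCP410 controls.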

Sequence of DPAP1 (Q8IIJ9 whole entry, looked up): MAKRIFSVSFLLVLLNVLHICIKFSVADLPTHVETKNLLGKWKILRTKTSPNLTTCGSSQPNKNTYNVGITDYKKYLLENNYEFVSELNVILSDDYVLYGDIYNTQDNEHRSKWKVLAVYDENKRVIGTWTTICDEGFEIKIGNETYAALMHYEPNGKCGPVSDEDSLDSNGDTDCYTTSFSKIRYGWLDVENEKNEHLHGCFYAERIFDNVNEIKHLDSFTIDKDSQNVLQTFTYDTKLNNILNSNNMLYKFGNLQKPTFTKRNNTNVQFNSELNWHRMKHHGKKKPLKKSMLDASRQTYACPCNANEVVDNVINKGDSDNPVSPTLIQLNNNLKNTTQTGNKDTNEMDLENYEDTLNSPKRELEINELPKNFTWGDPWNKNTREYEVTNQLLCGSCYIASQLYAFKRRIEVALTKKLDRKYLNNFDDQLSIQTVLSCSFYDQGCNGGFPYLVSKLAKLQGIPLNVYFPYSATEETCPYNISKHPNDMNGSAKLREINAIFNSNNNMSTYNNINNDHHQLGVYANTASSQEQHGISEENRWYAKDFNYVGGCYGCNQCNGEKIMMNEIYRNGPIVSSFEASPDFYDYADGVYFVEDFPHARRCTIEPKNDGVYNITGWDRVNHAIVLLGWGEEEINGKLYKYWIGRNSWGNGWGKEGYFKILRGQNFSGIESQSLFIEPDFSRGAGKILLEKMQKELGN

Compound | % Inhibition @ 10 uM [%]
Cc1nc2cc(-n3cc4c(c3-c3ccc(Br)cc3)c(=O)n(C)c(=O)n4C)ccc2n1C | -0.0678
Cn1ccnc1Sc1nc2c(c(=O)n(C)c(=O)n2C)n1Cc1cccc(Cl)c1 | 5.65
COc1ccc(-c2cc(C(F)(F)F)c3c(N)c(C#N)sc3n2)cc1 | -0.994
COCCNC(=O)COCc1cc(-c2ccc3c(c2)OCO3)on1 | 1.6
Cc1ccc(CNC(=O)Cn2c3ccccc3c3cnnc(O)c32)cc1 | 4.83
CC1=C(C(=O)Nc2ccc(C)cc2)C(c2ccccc2F)NC(=O)N1 (centres unmarked) | -3.5
Cc1ccc(CCNS(=O)(=O)c2c[nH]cn2)cc1 | 1.23
Cc1ccc(CS(=O)(=O)CCC(=O)NCCCOC(C)C)cc1 | -2.99
Cc1ccc(S(=O)(=O)Nc2cccc(C(=O)NCCO)c2)cc1 | -2.77
CCN(CC)S(=O)(=O)c1cccc(-c2cn3cccnc3n2)c1 | -0.25
Cc1ccc(S(=O)(=O)N2CCCC2C(=O)NCCc2nc3ccccc3[nH]2)cc1 (centres unmarked) | 3.25
CCCN(CCC)CCCNc1ccc2nnc(-c3ccc(F)cc3)n2n1 | 4.95
CCc1nn(C(C)C(=O)NCCC2=CCCCC2)c(=O)c2cc3occc3n12 (centres unmarked) | 1.38
COc1ccc(CCNS(=O)(=O)c2cc(Br)cnc2N)cc1OC | -2.84
CC(C)CCN1C(=O)S/C(=C/c2ccc(N(C)C)cc2)C1=O | -6.25
COc1cccc(/C=C2\N=C(c3ccc(Cl)c(Cl)c3)OC2=O)c1OC | 2.14
CCOC(=O)N1CCN(c2c(NCCc3ccc(OC)c(OC)c3)c(=O)c2=O)CC1 | 3.54
CS(=O)(=O)N(CC(=O)N1CCN(Cc2ccccc2)CC1)c1ccccc1F | -13.5
CC(C)OCCCNC(=O)Cn1cnc2onc(-c3ccc(F)cc3)c2c1=O | 0.186
Cc1cc(O)nc(SCc2nc(-c3ccc(Cl)cc3)no2)n1 | 2.31
CC(C)=CCC[C@H](C)CCN1CCOCC1 | -3.15
NS(=O)(=O)c1ccc(-c2ccc(/C=c3\sc4nc(=O)c(-c5ccccc5)nn4c3=O)o2)cc1 | 5.12
CCN(CC)C(=O)C1CCCN(Cc2cccs2)C1 (centres unmarked) | 3.16
Cc1cc2c(o1)-c1c(oc3ccc(Cl)cc13)CCC2C (centres unmarked) | 3.32
O=CN1CCN(Cc2c(Cl)cccc2Cl)CC1 | -0.0494
COc1ccc(CNC(=O)c2cc3cc4ccc(OC)cc4nc3s2)cc1 | -0.984

Compound | % Inhibition @ 10 uM [%]
O=C(/C=C/c1ccc2c(c1)OCO2)Nc1ccccc1Cl | -3.94
O=C1C=CC(=O)N1c1ccc(Oc2ccccc2)cc1 | -0.999
N#C/C(=C\c1ccccc1Cl)c1nc(-c2cccs2)cs1 | 4.26
Cn1c(COc2cccc3ccccc23)nc2ccccc21 | -8.05
CCOc1ccc(-n2c(C)nnc2SCc2nc(-c3ccc(C)cc3)no2)cc1 | -4.02
CCOC(=O)N1CCC(NC(=O)c2nn(C)c3c2CS(=O)(=O)c2ccccc2-3)CC1 | -0.495
CCOc1ccc(S(=O)(=O)N2CCN(Cc3ccccc3)CC2)c2ccccc12 | 7.63
O=S(=O)(NCc1ccc(C(F)(F)F)cc1)c1ccc(-n2cnnn2)cc1 | 0.635
CC1CCCC(N2CCC(C(N)=O)CC2)C1 (centres unmarked) | 5.03
Cn1c(=O)c2c(nc(CN3CCN(Cc4ccccc4)CC3)n2Cc2ccccc2Cl)n(C)c1=O | 4.51
N#Cc1c(SCC(N)=O)nsc1SCc1ccc(Cl)cc1 | 5.54
O=C(c1cccc(C(=O)N2CCc3ccccc32)n1)N1CCc2ccccc21 | -0.132
CC1(C)CC(NC(=O)c2ccc3ccccc3c2)CC(C)(C)N1 | 1.42
COc1ccc2c(C)c(CC(=O)NCc3ccco3)c(=O)oc2c1C | -0.808
COc1ccccc1-c1nc2s/c(=C\c3cccc(Br)c3)c(=O)n2n1 | -4.85
COc1cc(C(=O)Nc2cc(C)ccc2C)cc(OC)c1OC | -2.74
NC(=S)n1nc(-c2ccccc2)cc1O | -8.37
O=C(O)Cn1ncn2c(cc3cc(F)ccc32)c1=O | 3.24
CCOC(=O)c1ccc2[nH]c3c(c2c1)CN(C)CC3 | 1.88
COc1ccc(CN2CCN(S(C)(=O)=O)CC2)cc1Br | 2.26
Cc1ccccc1-c1nc(CS(=O)(=O)CC(=O)NCCCN2CCCC2=O)c(C)o1 | -7.53
Cc1cc(CN2CCN(C/C=C/c3ccccc3)CC2)c(C)n1-c1cccc(C(F)(F)F)c1 | -0.0648
N#Cc1ncccc1CCc1cccc(Cl)c1 | 0.983
O=C(/C=C/c1ccco1)c1ccc(C(=O)/C=C/c2ccco2)cc1 | -0.268
CCC(C)NC(=O)c1coc2nc3ccccc3nc12 (centres unmarked) | -0.971
O=C(Nc1cc(C(F)(F)F)ccc1F)C12CC3CC(C1)CC(n1cnc(Cl)n1)(C3)C2 | 2.43

Compound | % Inhibition @ 10 uM [%]
O=C(Cn1c2ccccc2c2cnnc(O)c21)NCc1ccccc1Cl | 1.38
CCCOc1ccc(Cc2nn3c(=O)/c(=C\c4cccc(OC)c4OC)sc3nc2=O)cc1 | 1.23
Cc1ccc(/C=C(\NC(=O)c2ccccc2)C(=O)NC2CCCC2)o1 | 4.33
Cc1ccc(S(=O)(=O)N2CCN(C(=O)c3cccnc3)CC2)cc1 | -3.4
CN(C)CC1=C(c2ccccc2)Oc2ccccc2C1c1ccccc1 (centres unmarked) | -0.902
O=C(O)C1(c2ccc3c(c2)OCCO3)CCCC1 | -2.63
CN(c1cccc(NC(=O)CN(c2cccc(F)c2)S(C)(=O)=O)c1)S(C)(=O)=O | -12.1
COc1ccc(OC)c(NC(=O)c2cc3ccccc3cc2O)c1 | 7.59
COc1ccc(C(=O)/C=C2/Sc3ccccc3N2C)cc1 | 1.96
COCCNc1nc2c(S(=O)(=O)c3ccc(Br)cc3)nnn2c2ccsc12 | -6.51
COc1cc(C=C2C(=O)NC(=O)NC2=O)ccc1OS(=O)(=O)c1ccccc1 | -1.93
Cc1ccc(S(=O)(=O)Nc2cccnc2)cc1 | 2.24
COc1cccc(CNCCCSc2nnnn2-c2ccccc2)c1 | -1.11
NC(=O)c1c(N)c(C(=O)c2ccc(Cl)cc2)n2ccccc12 | -3.75
O=C(COc1ccccc1)NC1CCCCC1NC(=O)COc1ccccc1 (centres unmarked) | -2.75
N=c1n(CCO)c2ccccc2n1Cc1ccccc1 | 5.04
CCOC(=O)N1CCN(c2cnnc3c(Cl)cccc23)CC1 | -0.527
Cc1ccc(NC=C2C(=O)N(C)C(=O)N(C)C2=O)cc1 | 2.36
CC(CCN1CCN(C/C=C/c2ccccc2)CC1)c1ccccc1 (centres unmarked) | -4.95
CN(CCCNS(=O)(=O)c1csc(C(N)=O)c1)C1CCCCC1 | -1.77
CC1C(c2ccccc2)N(C)CCC1(O)c1ccccc1 (centres unmarked) | -4.35
COC(=O)C1=C(C)OC(N)=C(C#N)C1c1ccccc1Cl (centres unmarked) | 0.467
N#CCNC(=O)C(Cc1ccc2occc2c1)NC(=O)c1ccc(N2CCOCC2)cc1 (centres unmarked) | 0.173
CSc1ccc(C2NC(=O)c3c(sc4c3CCN(C)C4)N2)cc1 (centres unmarked) | 4.39
COc1ccc(CCNC(=O)Cn2ncn3nc(-c4cccs4)cc3c2=O)cc1OC | 2.07
CC(Cc1c[nH]c2ccccc12)N1C(=O)c2ccccc2C1=O (centres unmarked) | -1.76

Compound | % Inhibition @ 10 uM [%]
Cc1nc2ccccc2n1CCN1CCCCC1 | 1.13
N#CC1=C(N)Oc2c(c(=O)oc3ccccc23)C1c1cccc(O)c1 (centres unmarked) | 1.7
CCCCOc1ccccc1-c1cc(C(=O)OC)[nH]n1 | 3.11
O=C(NCc1ccccn1)c1cccc2ccccc12 | 5.31
O=C(Nc1ccc(Cl)cc1)c1ccc(N2C(=O)CCC2=O)cc1 | -4.82
COCCCN1C(=O)C(O)=C(C(=O)c2ccc(Cl)cc2)C1c1ccc(Cl)c(Cl)c1 (centres unmarked) | -3.45
Clc1ccc(-c2noc3ncnc(N(Cc4ccco4)CC4CCCO4)c23)cc1 (centres unmarked) | 18.5
CCOc1ccc2c(c1)[N+](C)(C)C(C)(C)C=C2C | 1.63
COc1ccc(CC(=O)NC2CCCCC2NC(=O)Cc2ccc(OC)cc2)cc1 (centres unmarked) | 0.145
CCC(C)n1c(=O)c2sccc2n2c(CCCC(=O)NCCc3c[nH]c4ccccc34)nnc12 (centres unmarked) | -5.05
COc1cccc(C(=O)Nc2c3c(nn2-c2cccc(Cl)c2)CS(=O)(=O)C3)c1 | 6.04
Nc1ccccc1/C=C1/CCCc2cc3ccccc3nc21 | 3.15
COc1ccc(C2=C(C)C(c3cccs3)c3ccccc3O2)cc1 (centres unmarked) | 4.18
CCn1cc(C(=O)O)c(=O)c2cc(OC)ccc21 | -8.76
CSc1nsc(SC)c1C(=O)N1CCN(S(=O)(=O)c2ccc(C)cc2)C1C(C)C (centres unmarked) | 8.01
Cc1ccccc1Cn1nc(C)c(NC(=O)c2cc3nc(C(F)F)cc(C(F)F)n3n2)c1C | -1.42
COc1cc(/C=C2/C(=N)N3OC(C)=CC3=NC2=O)ccc1OCCCOc1ccc(C)cc1C | -1.43
O=C(c1cc(-c2ccc(O)cc2)on1)N1CCN(Cc2ccccc2)CC1 | 6.87
CCCSCCCn1cnc2c3ccccc3nc-2c1O | 3.24
OC1(c2ccc(Br)cc2)CCN(Cc2c(F)cccc2F)CC1 | -5.65
Cc1ccc(C(=O)O/N=C2\Sc3ccccc3C2=O)cc1 | -0.339
Cc1ccccc1OCC(=O)N1CCc2ccccc21 | -1.38
CCOc1ccc(NC(=O)CN(c2ccc(Cl)cc2)S(C)(=O)=O)cc1 | -1.43
